This is one part of the list. The full chains were built here from the parent and the listed change. Values near 0.05 are background.
B1: TEV protease; numbered along this chain (parent)
chain: MGESLFKGPRDYNPISSSICHLTNESDGHTTSLYGIGFGPFIITNKHLFRRNNGTLVVQSLHGVFKVKDTTTLQQHLVDGRDMIIIRMPKDFPPFPQKLKFREPQREERICLVTTNFQTKSMSSMVSDTSCTFPSGDGIFWKHWIQTKDGQCGSPLVSTRDGFIVGIHSASNFTNTNNYFTSVPKNFMELLTNQEAQQWVSGWRLNADSVLWGGHKVFMVKPEEPFQPVKEATQL

Variants of: B1
Assay: raw area under fraction-flipped curve 0-4 h after induction (AUC4h, not background-subtracted), DNA-recorder readout of cleavage of the substrate (dimensionless); higher = more cleavage of the substrate by the protease variant
Settings: temperature: 34 °C; time window: 0-4 h after rhamnose induction
Method: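 In vivo DNA recorder in E. coli TOP10(DE3) ΔrhaA at 34 °C. Each TEVp single-site mutant (parent TEVp 0) is paired with a single-site variant of the 7-mer TEVs (canonical ENLYFQ|S). The substrate sits between flexible linkers in a Bxb1-sfGFP-TEVs-SsrA fusion, so cleavage stabilises Bxb1 and speeds flipping of a recombination array, read by NGS. The value is the raw area under the fraction-flipped curve over 0-4 h after rhamnose induction (AUC4h), with ≥20 reads per time point. It is not background-subtracted; inactive controls average about 0.047.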
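Also: Bxb1 expression induced with 0.2% (w/v) L-rhamnose at OD600 near 0.5, cultures sampled hourly, flipped fraction per protease–substrate barcode pair counted by paired-end Illumina sequencing.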

| Variant | area with substrate ENLAFQS | area with substrate ENLEFQS | area with substrate ENLFFQS | area with substrate ENLHFQS | area with substrate ENLIFQS | area with substrate ENLKFQS | area with substrate ENLMFQS | area with substrate ENLNFQS | area with substrate ENLPFQS | area with substrate ENLRFQS |
| --- | --- | --- | --- | --- | --- | --- | --- | --- | --- | --- |
| MGESLFKGPRDYNPISSSICHLTNESDGHTTSLYGIGFGPFIITNKHLFRRNNGTLVVQSLHGVFKVKDTTTLQQHLVDGRDMIIIRMPKDFPPFPQKLKFREPQREERICLVTTNFQTKSMSSMVSDTSCNFPSGDGIFWKHWIQTKDGQCGSPLVSTRDGFIVGIHSASNFTNTNNYFTSVPKNFMELLTNQEAQQWVSGWRLNADSVLWGGHKVFMVKPEEPFQPVKEATQL [T132N] | 0.0774 | 0.0483 | 0.0576 | 0.0683 | 0.0554 | 0.073 | 0.0526 | 0.0594 | 0.0473 | 0.0687 |
| MGESLFKGPRDYNPISSSICHLTNESDGHTTSLYGIGFGPFIITNKHLFNRNNGTLVVQSLHGVFKVKDTTTLQQHLVDGRDMIIIRMPKDFPPFPQKLKFREPQREERICLVTTNFQTKSMSSMVSDTSCTFPSGDGIFWKHWIQTKDGQCGSPLVSTRDGFIVGIHSASNFTNTNNYFTSVPKNFMELLTNQEAQQWVSGWRLNADSVLWGGHKVFMVKPEEPFQPVKEATQL [R50N] | 0.0612 |  | 0.0618 | 0.0676 |  |  |  |  |  |  |
| MGESLFKGPRDYNPISSSICHLTNESDGHTISLYGIGFGPFIITNKHLFRRNNGTLVVQSLHGVFKVKDTTTLQQHLVDGRDMIIIRMPKDFPPFPQKLKFREPQREERICLVTTNFQTKSMSSMVSDTSCTFPSGDGIFWKHWIQTKDGQCGSPLVSTRDGFIVGIHSASNFTNTNNYFTSVPKNFMELLTNQEAQQWVSGWRLNADSVLWGGHKVFMVKPEEPFQPVKEATQL [T31I] | 0.0611 |  | 0.0805 | 0.0667 |  | 0.0961 |  | 0.069 | 0.0583 | 0.0647 |
| MGESLFKGPRDYNPISSSICHLTNESDGHTTSLYGIGFGPFIITNKHLFRRNNGTLVVQSLHGVFKVKDTTTLQQHLVDGRDMIIIRMPKDFPPFPQKLKFREPQREERICLVTTNFQTKSMSSMVSDTSCTFPSGDGIFWKHWIQTKDGQCGSPLVSTRDGFIVGIHSASNFTNTNNYFTSVPKNFMEFLTNQEAQQWVSGWRLNADSVLWGGHKVFMVKPEEPFQPVKEATQL [L190F] | 0.0761 |  |  |  |  | 0.0792 |  |  |  |  |
| MGESLFKGPRDYNPISSSICHLTNESDGHTTSLYGIGFGPFIITNKHLFRRNNGTLVVQSLHGVFKVKDTTTLQQHLVDGRDMIIIRMPKDFPPFPQKLKFREPQREERICLVTTNFQTKSMSSMVSDTSCTFPSGDGIFWKHWIQTKDGQCGSPLVETRDGFIVGIHSASNFTNTNNYFTSVPKNFMELLTNQEAQQWVSGWRLNADSVLWGGHKVFMVKPEEPFQPVKEATQL [S158E] | 0.0522 | 0.0787 | 0.059 |  |  |  |  | 0.0319 |  |  |
| MGESLFKGPRDYNPISSSICHLTNESDGHTTSLYGIGFGPFIITNKHLFRRNNGTLVVQSLHGVFKVKDTTTLQQHLVDGRDMIIIRMPKDFPPFPQKLKFREPQREERICLVTTNFQTKSMSSMVSDTSCTFPSGDGIFWKHWIQTKDGQCGSPLVSTRDGFIVGIHSASNFTNTNNYFTSVPKNFMELLTNQEAQQWVSGWRLNADSVLWGGHKVFMVKPEEPVQPVKEATQL [F226V] | 0.0627 | 0.069 |  |  |  |  |  |  | 0.0535 |  |

Same assay, conditions: temperature: 34 °C; time window: 0-4 h after rhamnose induction

| Variant | area with substrate ENLVFQS | area with substrate ENLDFQS | area with substrate ENLGFQS | area with substrate ENLSFQS | area with substrate ENLTFQS | area with substrate ENLWFQS |
| --- | --- | --- | --- | --- | --- | --- |
| MGESLFKGPRDYNPISSSICHLTNESDGHTTSLYGIGFGPFIITNKHLFRRNNGTLVVQSLHGVFKVKDTTTLQQHLVDGRDMIIIRMPKDFPPFPQKLKFREPQREERICLVTTNFQTKSMSSMVSDTSCNFPSGDGIFWKHWIQTKDGQCGSPLVSTRDGFIVGIHSASNFTNTNNYFTSVPKNFMELLTNQEAQQWVSGWRLNADSVLWGGHKVFMVKPEEPFQPVKEATQL [T132N] | 0.081 |  |  |  |  |  |
| MGESLFKGPRDYNPISSSICHLTNESDGHTTSLYGIGFGPFIITNKHLFNRNNGTLVVQSLHGVFKVKDTTTLQQHLVDGRDMIIIRMPKDFPPFPQKLKFREPQREERICLVTTNFQTKSMSSMVSDTSCTFPSGDGIFWKHWIQTKDGQCGSPLVSTRDGFIVGIHSASNFTNTNNYFTSVPKNFMELLTNQEAQQWVSGWRLNADSVLWGGHKVFMVKPEEPFQPVKEATQL [R50N] |  | 0.0628 |  |  |  |  |
| MGESLFKGPRDYNPISSSICHLTNESDGHTISLYGIGFGPFIITNKHLFRRNNGTLVVQSLHGVFKVKDTTTLQQHLVDGRDMIIIRMPKDFPPFPQKLKFREPQREERICLVTTNFQTKSMSSMVSDTSCTFPSGDGIFWKHWIQTKDGQCGSPLVSTRDGFIVGIHSASNFTNTNNYFTSVPKNFMELLTNQEAQQWVSGWRLNADSVLWGGHKVFMVKPEEPFQPVKEATQL [T31I] |  | 0.058 | 0.0604 | 0.0753 | 0.0728 | 0.113 |
| MGESLFKGPRDYNPISSSICHLTNESDGHTTSLYGIGFGPFIITNKHLFRRNNGTLVVQSLHGVFKVKDTTTLQQHLVDGRDMIIIRMPKDFPPFPQKLKFREPQREERICLVTTNFQTKSMSSMVSDTSCTFPSGDGIFWKHWIQTKDGQCGSPLVSTRDGFIVGIHSASNFTNTNNYFTSVPKNFMEFLTNQEAQQWVSGWRLNADSVLWGGHKVFMVKPEEPFQPVKEATQL [L190F] |  |  |  | 0.0728 |  | 0.063 |
| MGESLFKGPRDYNPISSSICHLTNESDGHTTSLYGIGFGPFIITNKHLFRRNNGTLVVQSLHGVFKVKDTTTLQQHLVDGRDMIIIRMPKDFPPFPQKLKFREPQREERICLVTTNFQTKSMSSMVSDTSCTFPSGDGIFWKHWIQTKDGQCGSPLVETRDGFIVGIHSASNFTNTNNYFTSVPKNFMELLTNQEAQQWVSGWRLNADSVLWGGHKVFMVKPEEPFQPVKEATQL [S158E] |  |  |  | 0.0601 |  | 0.0566 |
| MGESLFKGPRDYNPISSSICHLTNESDGHTTSLYGIGFGPFIITNKHLFRRNNGTLVVQSLHGVFKVKDTTTLQQHLVDGRDMIIIRMPKDFPPFPQKLKFREPQREERICLVTTNFQTKSMSSMVSDTSCTFPSGDGIFWKHWIQTKDGQCGSPLVSTRDGFIVGIHSASNFTNTNNYFTSVPKNFMELLTNQEAQQWVSGWRLNADSVLWGGHKVFMVKPEEPVQPVKEATQL [F226V] |  | 0.0532 | 0.0759 |  |  | 0.0858 |
